Source: publication PMC7778598
No constants are given. Whether binding was seen depends on the method and setting. Binding seen in cells or lysates may run through a third protein. Some binding calls cover weakened binding; strength is not graded here.

Sequences of proteins named here, by UniProt entry; tags and fusion partners are left off. A change or cut given only in a name is not applied to a line headed by its entry.
UniProt P84077: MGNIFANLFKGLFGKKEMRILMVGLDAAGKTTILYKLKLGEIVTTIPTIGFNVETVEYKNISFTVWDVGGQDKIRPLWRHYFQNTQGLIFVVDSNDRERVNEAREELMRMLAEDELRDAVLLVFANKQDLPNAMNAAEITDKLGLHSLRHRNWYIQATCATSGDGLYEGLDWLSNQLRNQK
UniProt P46940: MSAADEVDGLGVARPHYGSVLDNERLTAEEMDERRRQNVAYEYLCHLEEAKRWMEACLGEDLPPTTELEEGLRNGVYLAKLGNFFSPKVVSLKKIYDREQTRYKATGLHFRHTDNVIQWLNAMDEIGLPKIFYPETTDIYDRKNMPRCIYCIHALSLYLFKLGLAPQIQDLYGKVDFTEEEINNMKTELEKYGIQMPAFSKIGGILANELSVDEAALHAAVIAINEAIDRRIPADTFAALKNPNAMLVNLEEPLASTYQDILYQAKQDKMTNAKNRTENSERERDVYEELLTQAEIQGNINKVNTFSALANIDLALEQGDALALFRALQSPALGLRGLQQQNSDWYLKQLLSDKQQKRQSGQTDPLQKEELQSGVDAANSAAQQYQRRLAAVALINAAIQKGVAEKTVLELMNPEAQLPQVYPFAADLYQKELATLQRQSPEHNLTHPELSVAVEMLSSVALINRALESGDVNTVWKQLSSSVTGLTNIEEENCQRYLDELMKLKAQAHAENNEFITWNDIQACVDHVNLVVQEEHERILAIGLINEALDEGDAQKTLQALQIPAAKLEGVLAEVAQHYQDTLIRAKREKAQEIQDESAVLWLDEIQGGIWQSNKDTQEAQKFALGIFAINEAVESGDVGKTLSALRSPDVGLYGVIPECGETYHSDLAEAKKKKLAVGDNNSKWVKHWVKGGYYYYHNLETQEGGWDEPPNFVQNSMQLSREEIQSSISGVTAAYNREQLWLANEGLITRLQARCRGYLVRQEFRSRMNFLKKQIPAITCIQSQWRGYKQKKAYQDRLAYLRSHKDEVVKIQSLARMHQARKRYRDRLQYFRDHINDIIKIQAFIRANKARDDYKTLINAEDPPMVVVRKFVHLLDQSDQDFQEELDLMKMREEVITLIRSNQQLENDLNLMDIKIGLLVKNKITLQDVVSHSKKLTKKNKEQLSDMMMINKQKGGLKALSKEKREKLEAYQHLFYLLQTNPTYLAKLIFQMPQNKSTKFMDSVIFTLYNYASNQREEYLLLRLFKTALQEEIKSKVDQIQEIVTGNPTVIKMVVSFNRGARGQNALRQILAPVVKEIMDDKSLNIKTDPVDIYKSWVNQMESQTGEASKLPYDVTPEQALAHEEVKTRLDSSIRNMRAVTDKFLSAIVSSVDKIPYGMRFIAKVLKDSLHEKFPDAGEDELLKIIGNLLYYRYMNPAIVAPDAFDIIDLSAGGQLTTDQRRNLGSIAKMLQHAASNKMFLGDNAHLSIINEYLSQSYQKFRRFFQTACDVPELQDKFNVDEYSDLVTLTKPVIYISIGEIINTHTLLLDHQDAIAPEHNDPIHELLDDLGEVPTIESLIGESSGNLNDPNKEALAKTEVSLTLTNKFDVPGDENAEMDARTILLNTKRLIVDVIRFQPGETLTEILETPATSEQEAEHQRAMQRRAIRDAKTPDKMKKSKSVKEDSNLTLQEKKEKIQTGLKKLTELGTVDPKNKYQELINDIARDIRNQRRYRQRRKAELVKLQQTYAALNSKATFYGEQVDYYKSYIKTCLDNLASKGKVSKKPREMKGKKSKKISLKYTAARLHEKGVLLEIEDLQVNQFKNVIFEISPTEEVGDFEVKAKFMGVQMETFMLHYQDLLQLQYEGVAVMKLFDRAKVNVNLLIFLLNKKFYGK

Assays:
flag-ARF1 = flag-ARF1 (UniProt P84077); experiment: co-IP; HCT116 cells transfected with the flag-ARF1 plasmid and plasmids for wild-type or truncated IQGAP1; lysates immunoprecipitated using flag antibody, bound proteins analysed
[1] = target: ADP-ribosylation factor 1 (human (in HCT116; endogenous or overexpressed not stated)) (UniProt P84077); experiment: co-IP; immunoprecipitation from cells treated with azelastine (Figure 6A); concentration, time and cell line not given
wild-type ARF1 = wild-type ARF1 (UniProt P84077); experiment: co-IP; cell lysates precleared with IgG and protein A/G Sepharose beads (4 °C, 1 h), primary antibody overnight at 4 °C, protein A/G Sepharose beads 4 h, washed with PBS and lysis buffer, Western blotting; HCT116 and RKO cells (Figure 5B); with and without ARF1 overexpression (Figure 5H); untreated cells of Figure 6A
[2] = target: ADP-ribosylation factor 1 (human (in HCT116; endogenous or overexpressed not stated)) (UniProt P84077); experiment: as above

Row | binding (flag-ARF1) | binding (wild-type ARF1) | binding [2] | Substance | binding [1]
1 | binds | – | – | wild-type IQGAP1 (from UniProt P46940 1-1657) | –
2 | – | binds | binds | IQ-domain GTPase-activating protein 1 (from UniProt P46940 1-1657) | no binding (condition: cells treated with azelastine)
3 | binds | – | – | IQGAP1-∆RGCT/GRD (from UniProt P46940 1-1003) (domain or fragment) | –
4 | binds | – | – | IQGAP1-∆RGCT (from UniProt P46940 1-1275) (domain or fragment) | –
